Experimental data from PubChem BioAssay AID624296 (National Center for Advancing Translational Sciences (NCATS), 2012).
In all, about 350,000 compounds went through this assay and about 9,900 (2.8%) were called active. Inconclusive means that the source gave no clear call. Such entries were picked first, then a sample of the others. The call rests on the fitted dose curve; in most records, active means well fitted activation curve with a large enough effect; inconclusive means small, poorly fitted or top-dose-only effect; inactive means no such curve, though single readings can be large or run the other way. Potencies of inconclusive entries are left out as doubtful fits.

Test: A quantitative high throughput screen for small molecules that induce DNA re-replication in MCF 10a normal breast cells. Further: nearly all actives have a fitted effect of over 50% in size. On activity, positive = re-replication: % of control where 0% means no effect.
Conditions: MCF 10A DNA re-replication, Hoechst nuclear intensity, 48 h; activity, positive = re-replication: at 46.1 µM (top of the series)
Potency means the concentration at half of the fitted maximal effect; tags describe the fitted curve by direction and shape.

Compound | Potency | activity, positive = re-replication
COc1cc(CN2CCc3c([nH]c4ccccc34)C2)cc(OC)c1 | inconclusive [activator, partial curve, poor fit] | 
Cc1ccc2nc(/C(C#N)=C\c3cc(O)ccc3[N+](=O)[O-])[nH]c2c1 | inconclusive [activator, single point] | 
COC(=O)c1c(NC(=O)C2SC(=NC3CCCCC3)C(C(N)=O)=C2N)sc2c1CCCC2 (centres undefined) | inconclusive [activator, partial curve, poor fit] | 
O=C(O)Cc1cn(Cc2ccc(F)cc2)c2ccccc12 |  | inactive: 6.7%
CCOc1ccc(NC(=O)CN2CCN(CC(=O)Nc3ccc(OC)cc3OC)CC2)cc1 | inconclusive [activator, partial curve, poor fit] | 
CCOc1ccc(/C=C2\SC(N3CCc4ccccc4C3)=NC2=O)cc1 | inconclusive [activator, single point] | 
O=C(C1CC(=O)N(C2CCCC2)C1)N1CCN(c2cccc(Cl)c2)CC1 (centres undefined) | inconclusive [activator, partial curve, poor fit] | 
NC(=O)C(c1cccc(Cl)c1)c1ncc(C(F)(F)F)cc1Cl (centres undefined) |  | inactive: 4.98%
CC(C)CN(C(=O)COC(=O)C1c2ccccc2Oc2ccccc21)C1CCS(=O)(=O)C1 (centres undefined) | inconclusive [activator, full curve] | 
Nc1nc(CSc2nnnn2-c2ccccc2)nc(N2CCCc3ccccc32)n1 | inconclusive [activator, single point] | 
COc1ccc([C@@H]2C[C@@H](c3ccccc3)Oc3cc(C)cc(C)c32)cc1 | inconclusive [activator, full curve] | 
O=C(CC1SC(=Nc2ccc(O)cc2)NC1=O)Nc1ccccc1 (centres undefined) | inconclusive [activator, single point] | 
Cc1cc(C(=O)Nc2ccc(CC(=O)O)cc2)c(C)o1 |  | inactive: 0.733%
O=[N+]([O-])c1cc(/C=N/O)ccc1N1CCCC1 |  | inactive: -7.24%
CN1c2ccc(Cl)cc2C(=O)NC1C1CC=CCC1 (centres undefined) | inconclusive [activator, single point] | 
COc1ccc(Br)cc1S(=O)(=O)Nc1ncccc1C | inconclusive [activator, single point] | 
CCCC(=O)NNC(=O)CCC(=O)Nc1ccccc1Cl | inconclusive [activator, partial curve, poor fit] | 
Cc1cccc(CSC(Nc2ccc(F)cc2)=C(C#N)C#N)c1 | active: 14.6 µM | 
O=C(CSc1nnc(SCc2ccccc2)s1)N/N=C/C=C/c1ccccc1[N+](=O)[O-] |  | inactive: 3.26%
COc1ccc(NC(=O)c2cc(S(=O)(=O)N3CCc4ccccc43)cn2C)cc1 |  | inactive: 7.82%
COc1ccc(C(=O)C2CCCN(Cc3cnc(N4CCOCC4)s3)C2)c(OC)c1 (centres undefined) |  | inactive: -2.33%
CC(=O)Oc1ccc(N2C(=O)C3C4C=CC(CO)(O4)C3C2=O)cc1 (centres undefined) | inconclusive [activator, single point] | 
COC(=O)C1=C(C)NC(=O)/C1=C\c1cc(C)n(-c2cccc(C)c2)c1C | inconclusive [activator, partial curve, poor fit] | 

Compound | Potency | activity, positive = re-replication
Cc1cc(C)cc(NC(=O)CCc2nc3sc4c(c3c(=O)[nH]2)CCCC4)c1 | inconclusive [activator, single point] | 
CCn1c(SCC(=O)Nc2cccnc2Cl)nnc1-c1ccccc1 |  | inactive: -0.888%
C/C(=N\NC(=O)c1nnn(-c2nonc2N)c1CN(C)c1ccccc1)c1ccccc1O | inconclusive [activator, single point] | 
CCOc1ccc(/C=N/NC(=O)c2ccc(O)cc2)cc1CN1CC2CC(C1)c1cccc(=O)n1C2 (centres undefined) |  | inactive: -2.23%
O=C(N/N=C/c1ccc([N+](=O)[O-])o1)c1cn2ccc3ccccc3c2n1 | inconclusive [activator, full curve, poor fit] | 
COc1ccc(-c2cc([C@H]3[C@@H]4C=CCC[C@@]4(C)C(=O)N3Cc3ccccc3)ccc2F)cc1 |  | inactive: 24.8%
Oc1ccccc1C=NN=Cc1c(O)ccc2ccccc12 |  | inactive: 6%
N#Cc1c(NC(=O)CSc2nc3ccccc3s2)sc2c1CCCC2 | inconclusive [activator, full curve, poor fit] | 
O=c1[nH]c2ccc(Cl)cc2c(-c2ccccc2)c1SC(=S)N1CCCCC1 | inconclusive [activator, single point] | 
O=[N+]([O-])c1ccc(S(=O)(=O)CC(CN2CCOCC2)N2CCOCC2)cc1 (centres undefined) | inconclusive [activator, single point] | 
O=C(CCCO)N/N=C/c1cc(Br)ccc1O | inconclusive [activator, partial curve, poor fit] | 
Cn1c(SCc2nc(-c3ccc(Cl)cc3)no2)nnc1-c1ccccc1 | inconclusive [activator, single point] | 
CCN1C(=O)CC(NNC(=O)c2ccc(Cl)cc2)C1=O (centres undefined) |  | inactive: -1.65%
CCOc1ccc(Cc2c(Cl)nc(SC)nc2N(C)C)cc1 | active: 9.2 µM | 
CC1=C/C(=N\OS(=O)(=O)c2ccccc2)C=CC1=O | inconclusive [activator, single point] | 
CCc1noc(C)c1C(=O)N1CCN(S(=O)(=O)c2c(C)c(C)cc(C)c2C)CC1 |  | inactive: 5.61%
Cc1cc(C)c2nc(C(F)(F)F)nc(N3CCN(C(=O)c4ccco4)CC3)c2c1 | inconclusive [activator, partial curve, poor fit] | 
COc1ccc(C(=O)Nc2ccc3nc(N4CCCCC4)cc(C)c3c2)cc1OC | inconclusive [activator, single point] | 
CC1=C(C(=O)Nc2ccccc2)C(c2ccco2)C(C#N)=C(SCC(=O)OC(C)C)N1 (centres undefined) | inconclusive [activator, single point] | 
Cc1occc1C(=O)N/N=C/C1=C(N2CCOCC2)C(=C\c2ccc(Cl)cc2Cl)/CC1 | active: 2.06 µM | 
O=S(=O)(c1ccc(Br)cc1)N1CCC(c2nc3ccccc3[nH]2)CC1 | inconclusive [activator, single point] | 
Cc1ccc(N(Cc2ccc(C(=O)NC3CCCCC3)cc2)S(C)(=O)=O)cc1C | inconclusive [activator, single point] | 
COc1ccc(NC(=O)c2ccco2)cc1S(=O)(=O)N1CCCCC1 |  | inactive: -1.59%

Compound | Potency | activity, positive = re-replication
CCn1cc(C(=O)NCCCOC)c(=O)c2cc(S(=O)(=O)N3CCC(C)CC3)ccc21 | inconclusive [activator, single point] | 
CCOC(=O)c1ccc(S(=O)(=O)NCC(C)(C)N2CCOCC2)cc1 | inconclusive [activator, partial curve] | 
NC(=O)C1CCN(Cc2nc3cc(Cl)ccc3c(=O)[nH]2)CC1 | active: 20.6 µM | 
CCOC(=O)Nc1nc(-c2ccc(Cl)cc2Cl)cs1 | inconclusive [activator, single point] | 
Cc1cccc(S(=O)(=O)C(C#N)c2nc3ccccc3nc2N2CCOCC2)c1 (centres undefined) | inconclusive [activator, single point] | 
CN(C)C(=S)Nc1ccc(S(=O)(=O)N2CCCCC2)cc1 |  | inactive: -0.832%
N#CC1=C(N)OC2=C(CC/C2=C\c2ccccc2Cl)C1c1ccccc1Cl (centres undefined) | inconclusive [activator, full curve, poor fit] | 
Cc1[nH]c2ccccc2c1/C=N/NC(=S)NCc1ccccc1 | inconclusive [activator, single point] | 
O=C(c1cc(=O)[nH]c2ccccc12)N1CCN(S(=O)(=O)c2ccc3ccccc3c2)CC1 | inconclusive [activator, single point] | 
Cc1c(Nc2ncnc3c2cnn3-c2ccccc2)c(=O)n(-c2ccccc2)n1C |  | inactive: 3.51%
CCn1nc(C)c(Br)c1C(=O)Sc1ccccc1Cl | active: 18.4 µM | 
Cc1noc(C)c1C(=O)N1CCN(S(=O)(=O)c2cccc(Cl)c2Cl)CC1 |  | inactive: 1.84%
Cc1cc(S(=O)(=O)N2CCCCC2CCNC(=O)C(=O)NCC2CCCO2)ccc1F (centres undefined) |  | inactive: 0.523%
CC(=O)c1ccc(NC(=S)NCCc2cccc(Cl)c2)cc1 |  | inactive: -5.13%
O=C(NCc1ccccc1)C1=C[C@H](c2ccc(Br)cc2)C[C@H](OCCCCO)O1 | inconclusive [activator, single point] | 
CCCCN(CC)S(=O)(=O)c1ccc(C(=O)Nc2nnc(-c3cccs3)o2)cc1 | inconclusive [activator, partial curve, poor fit] | 
CCn1c(Cc2ccccc2)nnc1SCC(=O)N1CCCCC1 |  | inactive: 14.2%
Cc1ccc(S(=O)(=O)N2CCc3ccccc3CC2)cc1 | inconclusive [activator, single point] | 
COc1ccc(C(=O)C(OC(=O)c2ccccc2Cl)c2ccccc2)cc1 (centres undefined) |  | inactive: 0.997%
COc1ccc(CN2[C@@H](CC(C)=O)c3ccc(/C=C/C(C)=O)cc3S2(=O)=O)cc1 | inconclusive [activator, partial curve, poor fit] | 
C=CCn1c(N)c(C(=O)Nc2ccccc2)c2nc3ccccc3nc21 | active: 5.62 µM | 
COc1cccc(-c2c(C(=O)N/N=C/c3sccc3C)nnn2-c2nonc2N)c1 | inconclusive [activator, single point] | 
C=CC[C@@H](CC(=O)N[C@@H](CO)Cc1ccccc1)C(=O)N[C@H](COC(=O)[C@@H](CC=C)CC(=O)OC(C)(C)C)Cc1c[nH]c2ccccc12 | active: 16.4 µM | 
